Reference: PubChem BioAssay AID1768 (National Center for Advancing Translational Sciences (NCATS), 2009)
“And” between values parts separate entries of the source, which are not always exact repeats. Equal entries are not always repeated. Out of some 270,000 compounds screened, about 620 (0.23%) were called active. Inconclusive means that the source gave no clear call. Such entries were picked first, then a sample of the others. Calls follow the shape of the dose curve; as a rule, active = well fitted inhibition curve with a large enough effect in the polarisation, with a control signal flat (not every such curve was filed as active); inconclusive = small, poorly fitted or top-dose-only effect, or effect the other way, or a change in a side signal; inactive = no such curve, though single readings can be large or run the other way; the % refers to the polarisation. Potencies of inconclusive entries are doubtful fits and often do not repeat. A note “side channel” means that the fit belongs to a control or component signal, not to the main read-out.

Biological target: Menin (Homo sapiens) (UniProt O00255)
Sequence of UniProt O00255 (O00255 whole entry, looked up): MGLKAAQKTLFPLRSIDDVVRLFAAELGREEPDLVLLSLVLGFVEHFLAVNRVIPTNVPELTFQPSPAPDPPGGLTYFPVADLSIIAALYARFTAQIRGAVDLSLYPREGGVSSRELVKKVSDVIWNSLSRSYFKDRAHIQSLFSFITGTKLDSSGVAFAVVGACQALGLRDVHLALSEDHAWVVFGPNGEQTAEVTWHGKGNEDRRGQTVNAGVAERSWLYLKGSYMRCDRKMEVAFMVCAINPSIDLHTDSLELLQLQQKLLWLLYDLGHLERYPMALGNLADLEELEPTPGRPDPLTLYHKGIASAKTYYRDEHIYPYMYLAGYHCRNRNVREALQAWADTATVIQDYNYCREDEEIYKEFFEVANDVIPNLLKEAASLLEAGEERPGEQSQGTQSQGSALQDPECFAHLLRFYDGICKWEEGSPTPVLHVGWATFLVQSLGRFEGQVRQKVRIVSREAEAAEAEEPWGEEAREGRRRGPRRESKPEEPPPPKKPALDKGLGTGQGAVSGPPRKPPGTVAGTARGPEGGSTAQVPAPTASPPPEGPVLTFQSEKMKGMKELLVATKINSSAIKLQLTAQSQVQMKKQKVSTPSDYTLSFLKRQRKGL
Experiment: qHTS Assay for Inhibitors Targeting the Menin-MLL Interaction in MLL Related Leukemias: Competition With Texas Red Labeled MLL-derived Mutant Peptide
Details: fluorescence polarization; series mostly up to 61.6 µM
Potency is read from the fitted curve at half-maximal effect; tags tell the direction and shape of the fitted curve or compound fluorescence and quenching.

| Structure (SMILES) | Potency |
| --- | --- |
| Cc1ccc(NC(NC(=O)c2ccccc2[N+](=O)[O-])C(Cl)(Cl)Cl)cc1 (centres undefined) | inconclusive: 17.8 µM [quencher, side channel, single point] |
| O=C(O)c1cc(-c2ccccc2)n(-c2ccc(F)cc2)n1 | inconclusive: 0.562 µM [inhibitor, partial curve, poor fit] |
| O=S(=O)(c1ccc(F)cc1)N1CCc2ccccc2C1 | inconclusive: 39.8 µM [inhibitor, single point] |
| O=C(Nc1ccc2nc(-c3ccco3)c(-c3ccco3)nc2c1)N1CCN(c2ccccn2)CC1 | inconclusive: 12.6 µM [quencher, side channel, partial curve] |
| CCOC(=O)c1cc(-c2ccc(OC(F)F)cc2)nc2nc(SC)[nH]c(=O)c12 | inactive |
| COC(=O)C1=C(C)N(Cc2ccccc2)C(=O)N[C@H]1CCc1ccccc1 | inconclusive: 7.08 µM [fluorescent, side channel, single point] |
| O=C(CSc1nnc(C2CCCCC2)o1)Nc1ccccc1Cl | inconclusive: 39.8 µM [quencher, single point] |
| O=C(C/C=N/OCc1ccccc1F)c1cnc(-c2ccc(Cl)cc2)s1 | inconclusive: 31.6 µM [quencher, side channel, single point] |
| CCc1ccc(NC(=O)CSc2nc3ccccc3c(=O)n2CCCN2CCC(C)CC2)cc1 | inactive |
| Cc1cc(C)n(-c2ccc(C(=O)Nc3nnc(C4CC4)s3)cc2)n1 | inconclusive: 25.1 µM [inhibitor, single point] |
| CCOc1ccc(-c2nc3scc(-c4cccs4)c3c(=O)[nH]2)cc1 | inconclusive: 35.5 µM [inhibitor, single point] |
| Oc1ccccc1/C=C/c1noc(-c2ccccc2O)n1 | inconclusive: 17.8 µM [quencher, side channel, partial curve] |
| O=C(CSc1nnc(NC(=O)C2CCC2)s1)Nc1ccccc1Br | inconclusive: 39.8 µM [fluorescent, side channel, single point] |
| COc1ccc(Cn2c(O)c(C=Nc3ccc(O)cc3)c3ccccc3c2=O)cc1 | inconclusive: 10 µM [quencher, side channel, partial curve] |
| Cc1ccc(C)c(N(C(=O)c2csnn2)C(C(=O)NC2CCCCC2)c2ccccn2)c1 (centres undefined) | inconclusive: 39.8 µM [fluorescent, side channel, single point] |
| CCN1C(=O)C(CC(=O)Nc2ccc(F)cc2)N(CCCN2CCN(c3ccc(F)cc3)CC2)C1=S (centres undefined) | inconclusive: 12.6 µM [quencher, side channel, partial curve] |
| CC[n+]1cc(-c2ccccc2)nc(N2CCOCC2)n1 | inactive |
| CCNc1nc(C23CC4CC(CC(C4)C2)C3)cs1 | inconclusive: 15.8 µM [fluorescent, side channel, partial curve] |
| COc1ccc(-c2csc(N(CCCN(C)C)C(=O)c3ccccc3F)n2)cc1 | inconclusive: 31.6 µM [inhibitor, single point] |
| Brc1cccc(C2Nc3cccc4cccc(c34)N2)c1 | inconclusive: 10 µM [quencher, side channel, partial curve] |
| CCCN(CCC)c1nc(N)nc(-c2cc(Cl)ccc2OC)n1 | inconclusive: 28.2 µM [fluorescent, side channel, single point] |
| CCN1CCN(CC(=O)N/N=C/c2cc(Br)cs2)CC1 | inactive |
| CCOc1ccc(Br)cc1CNc1ccc2c(c1)OCCO2 | inconclusive: 17.8 µM [quencher, side channel, partial curve] |
| O=C(Nc1ccc(C(F)(F)F)cc1)c1cc(S(=O)(=O)NCC2COc3ccccc3O2)ccc1F (centres undefined) | inconclusive: 10 µM [quencher, side channel, partial curve] |
| Cc1sc(N/N=C/c2cccs2)nc1-c1ccccc1 | inconclusive: 5.62 µM [quencher, side channel, partial curve] |
| CCc1nnc(NS(=O)(=O)c2ccc(N/C=C\C(=O)c3ccc(C)cc3)cc2)s1 | inconclusive: 11.2 µM [quencher, side channel, partial curve] |
| O=C(/C=C/c1cccs1)Nc1ccc(N2CCOCC2)c(S(=O)(=O)Nc2cc(Cl)ccc2Cl)c1 | inconclusive: 3.16 µM [quencher, side channel, full curve] |

| Structure (SMILES) | Potency |
| --- | --- |
| Cn1nc(OC(=O)Nc2cccc(Cl)c2)cc1C(F)(F)F | inconclusive: 20 µM [quencher, side channel, single point] |
| COc1ccc(Cl)cc1NC(=S)NCCc1ccc(S(N)(=O)=O)cc1 | inconclusive: 20 µM [quencher, side channel, partial curve] |
| O=C1CNC(=S)N1Cc1ccc(Cl)cc1 | inconclusive: 39.8 µM [fluorescent, side channel, single point] |
| CCCOC(=O)c1cccc(Nc2nc(-c3cccnc3)nc3ccccc23)c1 | inconclusive: 35.5 µM [quencher, side channel, single point] |
| COc1cc(OC)c(OC)cc1/C=C1\CC(C)C/C(=C\c2cc(OC)c(OC)cc2OC)C1=O (centres undefined) | inconclusive: 3.16 µM [inhibitor, partial curve] |
| CCN(C(=O)c1cccc(S(=O)(=O)N(C)C)c1)C12CC3CC(CC(C3)C1)C2 | inconclusive: 10 µM [inhibitor, partial curve] |
| CN1CCN(CCCN2c3ccccc3Sc3ccc(C(F)(F)F)cc32)CC1 | inconclusive: 11.2 µM [fluorescent, side channel, partial curve] and inconclusive: 7.08 µM [fluorescent, side channel, partial curve] and inconclusive: 3.55 µM [fluorescent, side channel, full curve] |
| COc1ccc(/C=N/NS(=O)(=O)c2ccc(F)cc2)cc1COc1cc(F)ccc1[N+](=O)[O-] | inconclusive: 10 µM [quencher, side channel, partial curve] |
| CCOc1cc(/C=C2\SC(=Nc3ccc(CC)cc3)NC2=O)ccc1OCC(=O)O | inconclusive: 22.4 µM [quencher, side channel, partial curve] |
| CCOC(=O)c1ccc(S(=O)(=O)Nc2ccc(N3CCOCC3)cc2)cc1 | inconclusive: 44.7 µM [quencher, side channel, partial curve, poor fit] |
| Cc1ccc(-c2nn(-c3ccccc3)cc2CC(=S)N2CCOCC2)cc1 | inconclusive: 25.1 µM [quencher, side channel, single point] |
| COC(=O)c1cc2ccsc2n1CC(=O)Nc1ccc(N(C)C)cc1 | inconclusive: 25.1 µM [quencher, side channel, partial curve] |
| O=C(N/N=C/c1ccccc1O)C1CC(=O)N(c2ccc(Cl)cc2)C1 (centres undefined) | inactive |
| O=C1CCCc2[nH]c3cccc(/C(=C/c4ccccc4)c4ccccc4)c3c21 | inconclusive: 39.8 µM [inhibitor, single point] |
| Cc1cccc(CNc2cc(-c3ccc(N(C)C)cc3)ncn2)c1 | inconclusive: 39.8 µM [quencher, side channel, single point] |
| COc1ccccc1-c1cncnc1NCc1cnc(C)cn1 | inconclusive: 35.5 µM [quencher, side channel, single point] |
| O=C(CSc1nc2ccccc2c(=O)[nH]1)Nc1ccc(N2CCOCC2)cc1 | inconclusive: 35.5 µM [quencher, side channel, single point] |
| Nc1ccc(N=Nc2ccccc2)c2cccnc12 | inconclusive: 14.1 µM [quencher, side channel, partial curve] |
| Cc1[nH]c2ccccc2c1C(C[N+](=O)[O-])c1cccc(O)c1 (centres undefined) | inconclusive: 14.1 µM [quencher, side channel, partial curve] |
| CC(C)(C)OC(=O)NC(NC(=O)OCC1c2ccccc2-c2ccccc21)C(=O)O (centres undefined) | inactive |
| CN(c1ccc(C(=O)Nc2ccc(CC#N)cc2)cc1)S(C)(=O)=O | inconclusive: 7.08 µM [fluorescent, side channel, single point] |
| O=C(CCc1ccc(O)cc1)c1c(O)cc(O)cc1O | inactive and inconclusive: 10 µM [quencher, side channel, partial curve] and inconclusive: 7.94 µM [quencher, side channel, full curve] |
| O=C(N=Nc1c(O)[nH]c2ccccc12)c1ccco1 | inconclusive: 25.1 µM [quencher, side channel, partial curve] |
| COc1ccc(Cl)c2c1[nH]c1nc(SCc3ccccn3)nnc12 | inconclusive: 28.2 µM [quencher, side channel, single point] |
| Cc1cccc(C2=NN(c3ccccc3)[C@H](CO)[C@H]2c2ccc(Cl)cc2)c1 | inconclusive: 20 µM [quencher, side channel, partial curve] |
| O=S(=O)(c1ccc(-c2csc(Nc3ccc(F)cc3)n2)cc1)N1CCCC1 | inconclusive: 2.82 µM [quencher, side channel, full curve] |
| COc1cccc(CC2(CO)CCCN(Cc3sc(N4CCCC4)nc3Cl)C2)c1 (centres undefined) | inconclusive: 14.1 µM [fluorescent, side channel, partial curve] |
